# Results taken from the supplement of paper PMC7826260.
# The other results are listed elsewhere or left out. The data describe in vitro nicking of single-stranded DNA by Rep domains for 1 h at 37 °C with 3 µM enzyme; only the middle of the 90-letter strands is printed. Values are log2 of uncut reads against the no-enzyme pool; the lower, the more was cut; hits are not called. Counts are relative to all reads; values above 0 arise when much of the pool is cut.
# Test system: T1, Rep nickase domain of chickpea chlorotic dwarf virus
# T1 sequence (Rep 1-124, printed without the tag): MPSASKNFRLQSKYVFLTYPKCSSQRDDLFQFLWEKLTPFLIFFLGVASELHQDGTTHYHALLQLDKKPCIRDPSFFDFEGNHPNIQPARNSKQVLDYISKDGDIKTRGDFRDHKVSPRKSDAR
# Assay: uncleaved DNA left, log2 of reads against the no-enzyme library (log2 ratio); higher = less cleavage (more negative = more Rep cleavage of the k-mer); sequences stand for … in CTCGTCCG…ACCGGAGA
# Procedure: (§1)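 A pool of 90-nt single-stranded DNAs with seven random bases just before the constant AC of the nick site (name = the seven bases) was cut by 3 µM recombinant His6-SUMO-tagged Rep nickase domain (300 nM DNA, 50 mM HEPES pH 8.0, 50 mM NaCl, 1 mM MnCl2, 1 h, 37 °C, three replicates). Uncut DNA was amplified and sequenced.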
row,Sequence,uncleaved DNA left (log2)
1,GAGTGCT,-1.04
2,TCACCTT,-2.68
3,TAACCTG,-0.913
4,TACGGAT,1.52
5,CACGCGT,-1
6,GCTATCC,0.524
7,GAGAGAT,1.74
8,GCATCCG,-0.421
9,CACGAAT,-1.49
10,CGCGCTT,-0.624
11,TTTTCCA,-1.08
12,AGCCGAT,0.649
13,AATTTTT,-3.05
14,TTATGCT,-2.84
15,CACTATG,-0.432
16,GGTAGTA,1.02
17,ACAGCCC,-0.082
18,CGTAAGC,0.685
19,TCCTTTC,-0.128
20,GGTGAAC,1.64

row,Sequence,uncleaved DNA left (log2)
1,AGATTGA,0.303
2,CAAATGG,-0.158
3,CCGGGGT,0.99
4,GAGGGGG,0.4
5,TGGACCA,1.56
6,ATGGTTG,0.33
7,AACAGGG,-0.338
8,AAATCCG,0.231
9,GTTAGTT,0.513
10,GGCCTCA,0.824
11,TGTTTGA,0.268
12,TCCCGTC,-0.0388
13,ACCTTTT,-2.69
14,AACACGG,1.24
15,GGCTCAT,1.89
16,GACCTTC,0.512
17,TATCCGT,-1.16
18,CTGATTC,-0.0999
19,CGCATCC,-0.139
20,TCAGGCA,0.332

# Test system: T2, Rep nickase domain of faba bean necrotic yellows virus
# T2 sequence (Rep 1-98, printed without the tag): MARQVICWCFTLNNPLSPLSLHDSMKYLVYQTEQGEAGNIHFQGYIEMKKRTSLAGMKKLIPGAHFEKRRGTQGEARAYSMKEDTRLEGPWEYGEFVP
# Assay: as above
# Procedure: as §1
row,Sequence,uncleaved DNA left (log2)
1,GAGTGCT,-2
2,TCACCTT,-0.0709
3,TAACCTG,0.0388
4,TACGGAT,-0.0105
5,CACGCGT,-0.0389
6,GCTATCC,0.0416
7,GAGAGAT,0.0645
8,GCATCCG,-0.0806
9,CACGAAT,-0.0388
10,CGCGCTT,-0.138
11,TTTTCCA,-0.168
12,AGCCGAT,-0.0293
13,AATTTTT,-0.665
14,TTATGCT,0.0573
15,CACTATG,0.103
16,GGTAGTA,0.00668
17,ACAGCCC,-0.112
18,CGTAAGC,-0.0197
19,TCCTTTC,-0.0317
20,GGTGAAC,-0.0125

row,Sequence,uncleaved DNA left (log2)
1,AGATTGA,-0.0407
2,CAAATGG,0.0806
3,CCGGGGT,-0.154
4,GAGGGGG,0.121
5,TGGACCA,-0.0349
6,ATGGTTG,-0.00611
7,AACAGGG,0.0664
8,AAATCCG,0.151
9,GTTAGTT,-0.103
10,GGCCTCA,0.0588
11,TGTTTGA,0.0574
12,TCCCGTC,0.0381
13,ACCTTTT,-0.0607
14,AACACGG,0.00175
15,GGCTCAT,0.0158
16,GACCTTC,0.0275
17,TATCCGT,0.128
18,CTGATTC,0.0169
19,CGCATCC,0.0129
20,TCAGGCA,0.128

# Test system: T3, Rep nickase domain of maize striate mosaic virus
# T3 sequence (Rep 1-117, printed without the tag): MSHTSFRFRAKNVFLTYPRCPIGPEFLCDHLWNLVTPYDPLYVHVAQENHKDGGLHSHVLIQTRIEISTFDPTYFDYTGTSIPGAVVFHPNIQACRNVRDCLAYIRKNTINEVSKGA
# Assay: as above
# Procedure: as §1
row,Sequence,uncleaved DNA left (log2)
1,GAGTGCT,-0.306
2,TCACCTT,-0.395
3,TAACCTG,0.65
4,TACGGAT,1.88
5,CACGCGT,-0.967
6,GCTATCC,0.306
7,GAGAGAT,2.01
8,GCATCCG,-1
9,CACGAAT,-0.334
10,CGCGCTT,-0.187
11,TTTTCCA,-0.00729
12,AGCCGAT,0.959
13,AATTTTT,-0.917
14,TTATGCT,-2.22
15,CACTATG,-0.917
16,GGTAGTA,1.75
17,ACAGCCC,-0.582
18,CGTAAGC,0.0802
19,TCCTTTC,-0.928
20,GGTGAAC,2.09

row,Sequence,uncleaved DNA left (log2)
1,AGATTGA,-0.0836
2,CAAATGG,-0.936
3,CCGGGGT,1.93
4,GAGGGGG,0.295
5,TGGACCA,1.92
6,ATGGTTG,0.0213
7,AACAGGG,-1.04
8,AAATCCG,-0.964
9,GTTAGTT,1.51
10,GGCCTCA,1.36
11,TGTTTGA,-0.222
12,TCCCGTC,-0.477
13,ACCTTTT,-1.01
14,AACACGG,1.04
15,GGCTCAT,2.23
16,GACCTTC,0.509
17,TATCCGT,-0.996
18,CTGATTC,-0.691
19,CGCATCC,-0.439
20,TCAGGCA,0.0314
